{"source": "the supplement of paper PMC9446081", "note": "The whole screen tested about 39,000 compounds, of which about 220 (0.56%) showed activity. This is one part of the list.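 Further: static incubation at 37 °C against the wild-type strain, values averaged over two biological replicates.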", "data": [{"test_system": "Escherichia coli K-12 BW25113", "experiment": "relative growth (OD600 normalised to plate interquartile mean) (fraction); higher = less growth inhibition, active = 0.2 or less", "conditions": "50 µM; LB; incubation time: overnight (16-24 h)", "values": [{"smiles": "C[C@H](CO)N1C[C@H](C)[C@H](CN(C)C(=O)Nc2ccc(F)cc2)Oc2c(NC(=O)Nc3cccc4ccccc34)cccc2C1=O", "relative growth": "inactive: 1.01"}, {"smiles": "Cl.N=C(N)NC(=N)NCCc1ccccc1", "relative growth": "inactive: 1.03"}, {"smiles": "COc1ccc(NC(=O)N(C)C[C@H]2Oc3c(NC(=O)C4CCOCC4)cccc3C(=O)N([C@@H](C)CO)C[C@@H]2C)cc1", "relative growth": "inactive: 1"}, {"smiles": "C[C@@H]1CCCCO[C@@H](CN(C)C(=O)C2CCCCC2)[C@@H](C)CN([C@H](C)CO)C(=O)c2cc(NS(=O)(=O)c3cccs3)ccc2O1", "relative growth": "inactive: 0.977"}, {"smiles": "Cc1ccccc1S(=O)(=O)N(C)C[C@@H]1Oc2ccc(NC(=O)Nc3ccc(Cl)c(Cl)c3)cc2CC(=O)N([C@@H](C)CO)C[C@@H]1C", "relative growth": "inactive: 0.977"}, {"smiles": "C[C@H]1CCCCO[C@@H](CN(C)C(=O)CCCN(C)C)[C@@H](C)CN([C@@H](C)CO)C(=O)c2cc(NS(C)(=O)=O)ccc2O1", "relative growth": "inactive: 0.991"}, {"smiles": "C[C@H](CO)N1C[C@H](C)[C@@H](CN(C)Cc2ccc(C(=O)O)cc2)Oc2ccc(NC(=O)CCN3CCOCC3)cc2CC1=O", "relative growth": "inactive: 0.987"}, {"smiles": "C[C@@H]1CN([C@H](C)CO)S(=O)(=O)c2ccc(C#Cc3ccc(F)cc3)cc2O[C@@H]1CN(C)S(=O)(=O)c1ccc(F)cc1", "relative growth": "inactive: 1.04"}, {"smiles": "C[C@H]1CN([C@@H](C)CO)C(=O)Cc2cc(N(C)C)ccc2O[C@H]1CN(C)S(=O)(=O)c1cn(C)cn1", "relative growth": "inactive: 1.01"}, {"smiles": "C[C@@H]1CCCCO[C@H](CN(C)S(=O)(=O)c2ccc(F)cc2)[C@@H](C)CN([C@@H](C)CO)C(=O)c2cc(NC(=O)Nc3ccc(F)cc3)ccc2O1", "relative growth": "inactive: 1.03"}, {"smiles": "CC(Cc1cccc(C(F)(F)F)c1)NCCOC(=O)c1ccccc1.Cl", "note": "(stereo not drawn)", "relative growth": "inactive: 0.815"}, {"smiles": "CC(C)NC(=O)Nc1cccc2c1O[C@@H](CN(C)Cc1ccc3c(c1)OCO3)[C@H](C)CN([C@@H](C)CO)C2=O", "relative growth": "inactive: 1"}, {"smiles": "Cc1noc(C)c1NC(=O)Nc1ccc2c(c1)C(=O)N([C@H](C)CO)C[C@@H](C)[C@H](CN(C)C(=O)NC1CCCCC1)OCCCC[C@@H](C)O2", "relative growth": "inactive: 0.963"}, {"smiles": "C[C@H](CO)N1C[C@H](C)[C@@H](CN(C)C(=O)CN2CCOCC2)Oc2ncc(C#C[C@@H](C)O)cc2C1=O", "relative growth": "inactive: 1.02"}, {"smiles": "Cc1noc(C)c1S(=O)(=O)Nc1ccc2c(c1)CC(=O)N([C@H](C)CO)C[C@H](C)[C@H](CN(C)S(=O)(=O)c1c(C)noc1C)O2", "relative growth": "inactive: 1.01"}, {"smiles": "COCC(=O)Nc1ccc2c(c1)OC[C@H](C)N(Cc1ccccc1F)C[C@@H](C)[C@H](OC)CN(C)C2=O", "relative growth": "inactive: 1.02"}, {"smiles": "NC(=O)NC(CCC(=O)O)C(=O)O", "note": "(stereo not drawn)", "relative growth": "inactive: 1.06"}, {"smiles": "C[C@@H]1CCCCO[C@@H](CN(C)Cc2ccc(Cl)c(Cl)c2)[C@@H](C)CN([C@@H](C)CO)C(=O)c2cc(NS(=O)(=O)c3ccc(F)cc3)ccc2O1", "relative growth": "inactive: 0.958"}, {"smiles": "Cn1cnc(S(=O)(=O)N[C@H]2C=C[C@H](CC(=O)NCC3CC3)O[C@H]2CO)c1", "relative growth": "inactive: 1.03"}, {"smiles": "COCC(=O)Nc1ccc2c(c1)CC(=O)N2C", "relative growth": "inactive: 0.991"}, {"smiles": "C[C@@H]1CN([C@H](C)CO)C(=O)c2cc(-c3ccc(C(=O)N(C)C)cc3)cnc2O[C@H]1CN(C)C(=O)c1ccncc1", "relative growth": "inactive: 1.01"}, {"smiles": "C[C@@H]1CN([C@H](C)CO)C(=O)Cc2cc(NS(C)(=O)=O)ccc2O[C@@H]1CN(C)C(=O)Nc1ccc(F)cc1", "relative growth": "inactive: 0.928"}, {"smiles": "C[C@@H]1CCCCO[C@H](CN(C)S(=O)(=O)c2cccs2)[C@@H](C)CN([C@@H](C)CO)C(=O)c2cc(NS(=O)(=O)c3cn(C)cn3)ccc2O1", "relative growth": "inactive: 0.989"}, {"smiles": "C[C@@H]1CCCCO[C@H](CN(C)C(=O)c2ccccc2)[C@H](C)CN([C@@H](C)CO)C(=O)c2cc(NC(=O)CCCCCC(=O)Nc3ccccc3N)ccc2O1", "relative growth": "inactive: 0.982"}, {"smiles": "C[C@@H]1CN([C@@H](C)CO)C(=O)CCCn2cc(nn2)CO[C@H]1CN(C)C(=O)Nc1cccc2ccccc12", "relative growth": "inactive: 0.994"}, {"smiles": "CC(C)NC(=O)Nc1ccc2c(c1)C(=O)N([C@@H](C)CO)C[C@H](C)[C@H](CN(C)S(=O)(=O)c1ccc(Cl)cc1)O2", "relative growth": "inactive: 1.04"}, {"smiles": "CN(C)CCCNC(=O)C[C@@H]1CC[C@@H]2[C@H](COc3ccc(NC(=O)NC4CCCC4)cc3C(=O)N2C)O1", "relative growth": "inactive: 1.02"}, {"smiles": "C[C@@H]1CN([C@H](C)CO)C(=O)c2cc(NC(=O)Cc3ccccc3)ccc2O[C@@H]1CN(C)S(C)(=O)=O", "relative growth": "inactive: 1.04"}, {"smiles": "C[C@@H]1CCCCO[C@@H](CN(C)Cc2ccc(C(=O)Nc3ccccc3N)cc2)[C@H](C)CN([C@H](C)CO)C(=O)c2cc(N(C)C)ccc2O1", "relative growth": "inactive: 0.992"}, {"smiles": "O=C(C[C@@H]1CC[C@H](NC(=O)c2cnccn2)[C@@H](CO)O1)NCc1ccccc1F", "relative growth": "inactive: 0.993"}, {"smiles": "Cc1noc(C)c1S(=O)(=O)Nc1ccc2c(c1)CC(=O)N([C@@H](C)CO)C[C@@H](C)[C@@H](CN(C)Cc1ccc(Oc3ccccc3)cc1)O2", "relative growth": "inactive: 0.994"}, {"smiles": "CCOC(=O)[C@H]1CSCCN1", "relative growth": "inactive: 0.895"}, {"smiles": "C[C@H](CO)N1C[C@H](C)[C@@H](CN(C)S(=O)(=O)c2cn(C)cn2)Oc2ccc(NS(=O)(=O)c3cn(C)cn3)cc2CC1=O", "relative growth": "inactive: 1.02"}, {"smiles": "Cc1ccc(S(=O)(=O)Nc2ccc3c(c2)C(=O)N([C@@H](C)CO)C[C@H](C)[C@@H](CN(C)Cc2ccncc2)OCCCC[C@@H](C)O3)cc1", "relative growth": "inactive: 0.97"}, {"smiles": "O=C(C[C@H]1CC[C@H]2[C@@H](COC[C@H](O)CN2C(=O)Nc2ccc(C(F)(F)F)cc2)O1)NCCc1ccncc1", "relative growth": "inactive: 0.791"}, {"smiles": "Cc1noc(C)c1NC(=O)Nc1cccc2c1O[C@@H](CN(C)Cc1ccc(C(F)(F)F)cc1)[C@@H](C)CN([C@@H](C)CO)C2=O", "relative growth": "inactive: 0.981"}, {"smiles": "O=C(/C=C/c1ccc(O)c(O)c1)O[C@@H]1[C@H](O)C[C@@](O)(C(=O)O)C[C@H]1OC(=O)/C=C/c1ccc(O)c(O)c1", "relative growth": "inactive: 1"}, {"smiles": "C[C@H](CO)N1C[C@H](C)[C@H](CN(C)Cc2ccc(C(F)(F)F)cc2)Oc2ccc(NS(C)(=O)=O)cc2C1=O", "relative growth": "inactive: 1.01"}]}]}
